Measurements from the supplement of paper PMC8728848.
This is one part of the list.

Columns and labels:
Experiment in all cases: glycan array binding signal (z-score within array); higher = stronger binding
Settings in all cases: glycan notation: IUPAC condensed, linker removed
Man(b1-4)GlcNAc = molecular target: Man(b1-4)GlcNAc
Procedure, shortened: (§1)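 Glycan array data came from 3228 arrays in the Consortium for Functional Glycomics database, and only arrays with an available protein sequence were kept. Glycan names were put into IUPAC-condensed notation, and columns mapping to the same glycan were averaged. The binding signal is a within-array Z-score, averaged across arrays of one protein sequence run at different concentrations or buffers and across linkers. A negative Z-score can be read as non-binding.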

MurNAc(b1-4)GlcNAc = molecular target: MurNAc(b1-4)GlcNAc
Procedure, shortened: as §1

Neu5Ac(a2-3)Gal = molecular target: Neu5Ac(a2-3)Gal
Procedure, shortened: as §1

[1] = molecular target: Neu5Ac(a2-3)Gal(b1-3)GalNAc
Procedure, shortened: as §1

[2] = molecular target: Neu5Ac(a2-3)Gal(b1-3)GalNAc(b1-3)Gal(a1-4)Gal(b1-4)Glc
Procedure, shortened: as §1

[3] = molecular target: Neu5Ac(a2-3)Gal(b1-3)GalNAc(b1-4)Gal(b1-4)Glc
Procedure, shortened: as §1

[4] = molecular target: Neu5Ac(a2-3)Gal(b1-3)GalNAc(b1-4)[Neu5Ac(a2-3)]Gal(b1-4)Glc
Procedure, shortened: as §1

[5] = molecular target: Neu5Ac(a2-3)Gal(b1-3)GalNAc(b1-4)[Neu5Ac(a2-8)Neu5Ac(a2-3)]Gal(b1-4)Glc
Procedure, shortened: as §1

[6] = molecular target: Neu5Ac(a2-3)Gal(b1-3)GalNAc6S
Procedure, shortened: as §1

[7] = molecular target: Neu5Ac(a2-3)Gal(b1-3)GlcNAc
Procedure, shortened: as §1

[8] = molecular target: Neu5Ac(a2-3)Gal(b1-3)GlcNAc(b1-2)Man
Procedure, shortened: as §1

[9] = molecular target: Neu5Ac(a2-3)Gal(b1-3)GlcNAc(b1-2)Man(a1-3)[GlcNAc(b1-4)][Neu5Ac(a2-3)Gal(b1-3)GlcNAc(b1-2)Man(a1-6)]Man(b1-4)GlcNAc(b1-4)GlcNAc
Procedure, shortened: as §1

[10] = molecular target: Neu5Ac(a2-3)Gal(b1-3)GlcNAc(b1-2)Man(a1-3)[Neu5Ac(a2-3)Gal(b1-3)GlcNAc(b1-2)Man(a1-6)]Man(b1-4)GlcNAc(b1-4)GlcNAc
Procedure, shortened: as §1

[11] = molecular target: Neu5Ac(a2-3)Gal(b1-3)GlcNAc(b1-2)[Neu5Ac(a2-3)Gal(b1-3)GlcNAc(b1-4)]Man(a1-6)[Neu5Ac(a2-3)Gal(b1-3)GlcNAc(b1-2)Man(a1-3)]Man(b1-4)GlcNAc(b1-4)GlcNAc
Procedure, shortened: as §1

[12] = molecular target: Neu5Ac(a2-3)Gal(b1-3)GlcNAc(b1-3)Gal(b1-3)GlcNAc
Procedure, shortened: as §1

[13] = molecular target: Neu5Ac(a2-3)Gal(b1-3)GlcNAc(b1-3)Gal(b1-4)GlcNAc
Procedure, shortened: as §1

[14] = molecular target: Neu5Ac(a2-3)Gal(b1-3)GlcNAc(b1-3)GalNAc
Procedure, shortened: as §1

[15] = molecular target: Neu5Ac(a2-3)Gal(b1-3)GlcNAc(b1-6)GalNAc
Procedure, shortened: as §1

[16] = molecular target: Neu5Ac(a2-3)Gal(b1-3)GlcNAc6S
Procedure, shortened: as §1

[17] = molecular target: Neu5Ac(a2-3)Gal(b1-3)[Fuc(a1-4)]GlcNAc
Procedure, shortened: as §1

[18] = molecular target: Neu5Ac(a2-3)Gal(b1-3)[Fuc(a1-4)]GlcNAc(b1-3)Gal(b1-3)[Fuc(a1-4)]GlcNAc
Procedure, shortened: as §1

[19] = molecular target: Neu5Ac(a2-3)Gal(b1-3)[Fuc(a1-4)]GlcNAc(b1-3)Gal(b1-4)[Fuc(a1-3)]GlcNAc
Procedure, shortened: as §1

B1: Banana lectin (Musa acuminata) (protein)
chain: MNGAIKVGAWGGNGGSAFDMGPAYRIISVKIFSGDVVDGVDVTFTYYGKTETRHYGGSGGTPHEIVLQEGEYLVGMAGEVANYHGAVVLGKLGFSTNKKAYGPFGNTGGTPFSLPIAAGKISGFFGRGGKFLDAIGVYLEPLEHHHHHH
Man(b1-4)GlcNAc
  glycan array binding signal (z-score): -0.607
MurNAc(b1-4)GlcNAc
  glycan array binding signal (z-score): -0.203
Neu5Ac(a2-3)Gal
  glycan array binding signal (z-score): -0.214
[1]
  glycan array binding signal (z-score): 0.034
[2]
  glycan array binding signal (z-score): -0.222
[3]
  glycan array binding signal (z-score): -0.209
[4]
  glycan array binding signal (z-score): -0.185
[5]
  glycan array binding signal (z-score): -0.236
[6]
  glycan array binding signal (z-score): -0.237
[7]
  glycan array binding signal (z-score): -0.202
[8]
  glycan array binding signal (z-score): -0.22
[9]
  glycan array binding signal (z-score): -0.157
[10]
  glycan array binding signal (z-score): -0.222
[11]
  glycan array binding signal (z-score): 0.118
[12]
  glycan array binding signal (z-score): -0.202
[13]
  glycan array binding signal (z-score): -0.189
[14]
  glycan array binding signal (z-score): -0.218
[15]
  glycan array binding signal (z-score): -0.288
[16]
  glycan array binding signal (z-score): -0.222
[17]
  glycan array binding signal (z-score): -0.213
[18]
  glycan array binding signal (z-score): -0.179
[19]
  glycan array binding signal (z-score): -0.033
